Reference: the supplement of paper PMC4967469
The IC50 comes from the fitted curve, where viability falls to half of the control; fits outside the tested doses are given as limits. AUC sums up the same curve from the lowest dose to the 256-fold higher top dose; it is 1 without any effect and falls as sensitivity rises. For part of these data: An inferred top dose was derived from the fitted curves, not read from the paper. For part of these data: Drugs with an entry number were screened twice under separate entries, and the two screens often disagree.

Legend:
Assay in all cases: Viability of human cancer cell lines after 72 h of drug (GDSC screen)
PLX4720 = compound: CCCS(=O)(=O)Nc1ccc(F)c(C(=O)c2c[nH]c3ncc(Cl)cc23)c1F [PLX4720]; details: top dose 10 µM
Procedure: (§1)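 Human cancer cell lines in 384-well plates, medium with 10% serum, drug for 72 h over a 256-fold dose range (nine 2-fold or five 4-fold steps up to the top dose). Adherent lines were fixed and stained with the nucleic acid dye Syto60, suspension lines read with resazurin; signal relative to control wells, capped at 0 and 100%. One two-parameter sigmoid per drug and line, fitted in a mixed model over all curves with the slope shared within a line.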

Y-39983 = compound: C[C@@H](N)c1ccc(C(=O)Nc2ccnc3[nH]ccc23)cc1 [Y-39983]; details: top dose 20 µM; top dose inferred
Procedure: as §1

PHA-793887 = compound: CC(C)CC(=O)Nc1n[nH]c2c1CN(C(=O)C1CCN(C)CC1)C2(C)C [PHA-793887]; details: top dose 10.24 µM
Procedure: as §1

Epothilone B = compound: C/C(=C\c1csc(C)n1)[C@@H]1C[C@@H]2O[C@]2(C)CCC[C@H](C)[C@H](O)[C@@H](C)C(=O)C(C)(C)[C@@H](O)CC(=O)O1 [Epothilone B]; details: top dose 0.032 µM; top dose inferred
Procedure: as §1

TPCA-1 = compound: NC(=O)Nc1sc(-c2ccc(F)cc2)cc1C(N)=O [TPCA-1]; details: top dose 20 µM
Procedure: as §1

[1] = screen: GDSC drug entry 1371, top dose inferred

Cell Line | AUC (PLX4720; screen: GDSC drug entry 1036) | IC50 (PLX4720; screen: GDSC drug entry 1036) [µM] | AUC (PLX4720; [1]) | IC50 (PLX4720; [1]) [µM] | AUC (Y-39983) | IC50 (Y-39983) [µM] | AUC (PHA-793887) | IC50 (PHA-793887) [µM] | AUC (Epothilone B) | IC50 (Epothilone B) [nM] | AUC (TPCA-1) | IC50 (TPCA-1) [µM]
H2731 (mesothelioma, adherent) | 0.971 | > 10 | 0.982 | > 10 | 0.98 | > 20 | 0.984 | > 10.2 | 0.904 | > 32 | 0.773 | 8.9
H2795 (mesothelioma, adherent) | 0.749 | 3.21 | 0.986 | > 10 | 0.954 | > 20 | 0.896 | > 10.2 | 0.968 | > 32 | 0.687 | 4.14
H2803 (mesothelioma, adherent) | – | – | 0.983 | > 10 | 0.955 | > 20 | 0.985 | > 10.2 | 0.916 | > 32 | 0.841 | 17.4
H2804 (mesothelioma, adherent) | – | – | 0.984 | > 10 | 0.963 | > 20 | 0.95 | > 10.2 | 0.597 | 3.79 | 0.927 | > 20
H2818 (mesothelioma, adherent) | – | – | 0.987 | > 10 | 0.932 | > 20 | 0.988 | > 10.2 | 0.989 | > 32 | 0.973 | > 20
H2869 (mesothelioma, adherent) | 0.979 | > 10 | 0.982 | > 10 | 0.868 | > 20 | 0.769 | 4.77 | 0.746 | 12.3 | 0.809 | 13.6
H3118 (head and neck, adherent) | 0.956 | > 10 | 0.981 | > 10 | 0.977 | > 20 | 0.697 | 2.42 | 0.507 | 2.09 | 0.762 | 7.78
H3255 (lung adenocarcinoma, adherent) | 0.965 | > 10 | – | – | 0.958 | > 20 | 0.911 | > 10.2 | 0.609 | 4.24 | 0.926 | > 20
HARA (lung squamous cell carcinoma, adherent) | 0.968 | > 10 | 0.981 | > 10 | 0.901 | > 20 | 0.486 | 0.584 | 0.579 | 3.42 | 0.849 | 19
HCC38 (breast, adherent) | 0.986 | > 10 | 0.974 | > 10 | 0.957 | > 20 | 0.854 | 9.12 | 0.583 | 3.45 | 0.893 | > 20
HCC70 (breast, adherent) | – | – | 0.977 | > 10 | 0.878 | 19.8 | 0.419 | 0.385 | 0.63 | 4.53 | 0.94 | > 20
HCC1143 (breast, adherent) | 0.979 | > 10 | 0.959 | > 10 | 0.918 | > 20 | 0.856 | > 10.2 | 0.862 | > 32 | 0.892 | > 20
HCC1395 (breast, adherent) | 0.977 | > 10 | 0.961 | > 10 | 0.935 | > 20 | 0.966 | > 10.2 | 0.902 | > 32 | 0.94 | > 20
HCC1419 (breast, adherent) | 0.962 | > 10 | 0.979 | > 10 | 0.979 | > 20 | 0.941 | > 10.2 | 0.898 | > 32 | 0.951 | > 20
HCC1428 (breast, adherent) | 0.983 | > 10 | 0.986 | > 10 | 0.983 | > 20 | 0.97 | > 10.2 | 0.89 | > 32 | 0.974 | > 20
HCC1569 (breast, adherent) | 0.98 | > 10 | 0.951 | > 10 | 0.962 | > 20 | 0.881 | > 10.2 | 0.71 | 9.71 | 0.895 | > 20
HCC1806 (breast, adherent) | 0.955 | > 10 | 0.987 | > 10 | 0.961 | > 20 | 0.554 | 0.888 | 0.441 | 1.4 | 0.882 | 18.2
HCC1937 (breast, adherent) | 0.978 | > 10 | 0.98 | > 10 | 0.983 | > 20 | 0.843 | 8.94 | 0.854 | 31.5 | 0.955 | > 20
HCC1954 (breast, adherent) | 0.984 | > 10 | 0.949 | > 10 | 0.984 | > 20 | 0.712 | 2.85 | 0.715 | 9.1 | 0.985 | > 20
HCC-15 (lung squamous cell carcinoma, adherent) | 0.943 | > 10 | 0.83 | 8.9 | 0.964 | > 20 | 0.943 | > 10.2 | 0.471 | 1.63 | 0.91 | > 20
HCC-44 (lung adenocarcinoma, adherent) | 0.943 | > 10 | 0.967 | > 10 | 0.881 | > 20 | 0.529 | 0.767 | 0.308 | 0.588 | 0.771 | 7.51
HCC-56 (large intestine, adherent) | 0.987 | > 10 | 0.885 | > 10 | 0.92 | > 20 | 0.885 | > 10.2 | 0.536 | 2.51 | 0.93 | > 20
HCC-78 (lung adenocarcinoma, adherent) | 0.983 | > 10 | 0.981 | > 10 | 0.973 | > 20 | 0.612 | 1.38 | 0.873 | > 32 | 0.86 | > 20

Cell Line | AUC (PLX4720; screen: GDSC drug entry 1036) | IC50 (PLX4720; screen: GDSC drug entry 1036) [µM] | AUC (PLX4720; [1]) | IC50 (PLX4720; [1]) [µM] | AUC (Y-39983) | IC50 (Y-39983) [µM] | AUC (PHA-793887) | IC50 (PHA-793887) [µM] | AUC (Epothilone B) | IC50 (Epothilone B) [nM] | AUC (TPCA-1) | IC50 (TPCA-1) [µM]
HCC-827 (lung adenocarcinoma, adherent) | 0.838 | 8.28 | 0.983 | > 10 | 0.984 | > 20 | 0.922 | > 10.2 | 0.817 | 21.4 | 0.771 | 8.83
HCT-15 (large intestine, adherent) | 0.955 | > 10 | 0.976 | > 10 | 0.937 | > 20 | 0.987 | > 10.2 | 0.342 | 0.708 | 0.737 | 6.24
HCT-116 (large intestine, adherent) | 0.987 | > 10 | 0.985 | > 10 | 0.861 | 15.5 | 0.207 | 0.0927 | 0.644 | 4.9 | 0.78 | 7.82
HDQ-P1 (breast, adherent) | 0.956 | > 10 | 0.952 | > 10 | 0.979 | > 20 | 0.943 | > 10.2 | 0.727 | 10.1 | 0.898 | > 20
HEC-1 (endometrium, adherent) | 0.979 | > 10 | 0.985 | > 10 | 0.989 | > 20 | 0.989 | > 10.2 | 0.731 | 8.83 | 0.989 | > 20
HGC-27 (stomach, adherent) | 0.938 | > 10 | 0.973 | > 10 | 0.955 | > 20 | 0.772 | 3.37 | 0.225 | 0.371 | 0.771 | 6.53
HLE (liver, adherent) | 0.981 | > 10 | 0.983 | > 10 | 0.908 | > 20 | 0.977 | > 10.2 | 0.291 | 0.536 | 0.859 | 15.2
HMV-II (melanoma, adherent) | – | – | 0.98 | > 10 | 0.958 | > 20 | 0.898 | > 10.2 | 0.352 | 0.706 | 0.868 | > 20
HN (head and neck, adherent) | 0.886 | 9.84 | 0.918 | > 10 | 0.987 | > 20 | 0.987 | > 10.2 | 0.946 | > 32 | 0.989 | > 20
HO-1-N-1 (head and neck, adherent) | – | – | 0.949 | > 10 | 0.972 | > 20 | 0.832 | 5.83 | 0.495 | 1.94 | 0.932 | > 20
HO-1-u-1 (head and neck, adherent) | 0.976 | > 10 | 0.987 | > 10 | 0.973 | > 20 | 0.817 | 5.43 | 0.586 | 3.4 | 0.969 | > 20
HOP-92 (large cell lung carcinoma, adherent) | – | – | 0.963 | > 10 | 0.98 | > 20 | 0.982 | > 10.2 | 0.877 | > 32 | 0.967 | > 20
HOS (osteosarcoma, adherent) | 0.962 | > 10 | 0.99 | > 10 | 0.992 | > 20 | 0.992 | > 10.2 | 0.315 | 0.669 | 0.992 | > 20
HPAF-II (pancreas, adherent) | – | – | 0.964 | > 10 | 0.981 | > 20 | 0.813 | 7.75 | 0.76 | 14.6 | 0.792 | 12.3
HSC-2 (head and neck, adherent) | 0.974 | > 10 | 0.984 | > 10 | 0.989 | > 20 | 0.969 | > 10.2 | 0.248 | 0.405 | 0.963 | > 20
HSC-3 (head and neck, adherent) | – | – | 0.871 | 7.17 | 0.964 | > 20 | 0.942 | > 10.2 | 0.347 | 0.809 | 0.962 | > 20
HSC-4 (head and neck, adherent) | – | – | 0.928 | > 10 | 0.962 | > 20 | 0.927 | > 10.2 | 0.763 | 15.4 | 0.962 | > 20
HT55 (large intestine, adherent) | 0.99 | > 10 | – | – | 0.99 | > 20 | 0.99 | > 10.2 | 0.868 | 29 | 0.983 | > 20
HT-3 (cervix, adherent) | 0.986 | > 10 | 0.985 | > 10 | 0.98 | > 20 | 0.803 | 5.16 | 0.805 | 16.4 | 0.879 | > 20
HT-29 (large intestine, adherent) | 0.722 | 2.66 | 0.93 | > 10 | 0.969 | > 20 | 0.645 | 1.61 | 0.292 | 0.521 | 0.857 | 16.3
HT-115 (large intestine, adherent) | 0.991 | > 10 | 0.991 | > 10 | 0.988 | > 20 | 0.991 | > 10.2 | 0.874 | 26.4 | 0.984 | > 20
HT-1080 (fibrosarcoma, adherent) | 0.856 | 6.72 | 0.86 | 6.99 | 0.978 | > 20 | 0.987 | > 10.2 | 0.389 | 1.03 | 0.98 | > 20
HT-1197 (bladder, adherent) | 0.975 | > 10 | 0.93 | > 10 | 0.985 | > 20 | 0.938 | > 10.2 | 0.762 | 13.5 | 0.98 | > 20
